Out of some 46,000 compounds screened, about 60 (0.1%) were called active. Inconclusive results (about 3%) are left out. Calls come from the whole dose curve; as a rule, active = well fitted inhibition curve with a large enough effect; inconclusive = small, poorly fitted or top-dose-only effect; inactive = no such curve, though single readings can be large or run the other way. The list shows a part of the results.
Experiment: Primary qHTS assay for Inhibitors of ovarian cancer metastasis using an organotypic tumor microenvironment (TME) model.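 For activity change, negative = inhibition: plate controls were DMSO wells for no effect and tomatine positive control wells for full effect.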 Note: nearly all actives have a fitted effect of over 65% in size.
Details: SKOV3ip1-GFP adhesion/invasion on 3D omental model, fluorescence; series mostly up to 45.8 µM; activity change, negative = inhibition: at the top concentration
In short: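 qHTS, 4-pt dose (0.36-46 umol/L); SKOV3ip1-GFP, 1,200 cells/well, no FBS; primary omental fibroblast/mesothelial co-culture 48 h pre-grown; 2 h RT + 16 h 37 C; PBS wash, 4% PFA; GFP count 488/509 nm.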

Row | Compound | activity change, negative = inhibition | outcome
1 | CCOC(=O)CNS(=O)(=O)c1cc(-c2nnc(Nc3cccc(O)c3)c3ccccc23)ccc1C | inactive: 5.55% | –
2 | O=C(CSc1n[nH]c(-c2ccccc2Cl)n1)N1CCN(c2ccccc2)CC1 | – | inactive
3 | Cc1ccc(C)c(NC(=O)c2ccc3nc(CCc4ccccc4)oc3c2)c1 | – | inactive
4 | CCC(=O)NCc1cc(-c2nn(C)c(=O)c3ccccc23)ccc1OC | inactive: 0.0778% | –
5 | CCCCC(CC)CNC(=O)C1CCN(S(=O)(=O)c2cccc3nsnc23)CC1 (stereo not drawn) | – | inactive
6 | CCC(C)(C)C1CCc2c(sc(NC(=O)C3c4ccccc4Oc4ccccc43)c2C(N)=O)C1 (stereo not drawn) | inactive: 1.25% | –
7 | Cc1ccccc1NC(=O)CCn1cnc2onc(-c3ccc(F)cc3)c2c1=O | inactive: 0.545% | –
8 | O=S(=O)(c1ccccc1)c1nc(-c2cccs2)oc1SCc1ccccc1F | inactive: 1.9% | –
9 | CCOc1ccc(NC(=O)CCn2cnc3onc(-c4ccc(F)cc4)c3c2=O)cc1 | inactive: 5.7% | –
10 | Cc1ccc(NS(=O)(=O)c2c(C(=O)N3CCC(C)CC3)c(C)n(C)c2C)cc1Cl | – | inactive
11 | N#Cc1nc(-c2ccc(COc3ccc(Cl)cc3)o2)oc1N1CCN(c2ccccc2)CC1 | inactive: -25.6% | –
12 | COc1ccccc1N1CCN(C(=O)c2cc3c(=O)n(Cc4ccco4)ccc3nc2C)CC1 | – | inactive
13 | CCOC(=O)c1c(S(=O)(=O)N2CCCC(C(=O)N3CCN(c4cccc(C)c4C)CC3)C2)c(C)n(C)c1C (stereo not drawn) | – | inactive
14 | O=C(CSc1nc2c(oc3ccccc32)c(=O)n1-c1ccccc1F)Nc1ccccc1 | – | inactive
15 | Cc1ccc(CN2CCSc3ccc(C(=O)N4CCN(c5cc(C)ccc5C)CC4)cc32)cc1 | inactive: -7.76% | –
16 | CCOc1cc(S(=O)(=O)n2ccnc2C(C)C)ccc1Cl | inactive: -11.9% | –
17 | O=C(CN1C(=O)COc2ccc(S(=O)(=O)N3CCOCC3)cc21)NCc1ccc(F)cc1 | – | inactive
18 | Cn1c(=O)cc(SCC(=O)N2CCN(c3ccc(F)cc3)CC2)c2ccc(Cl)cc21 | inactive: 0.162% | –
19 | CC(C)CN1CCc2nc(N3CCN(C)CC3)ncc2C1 | inactive: 0.406% | –
20 | Cc1ccc(Nc2c3c(nc4nncn24)CCC3)cc1C | – | inactive
21 | COc1cc(NC(=O)c2ccccc2)ccc1NC(=O)c1cc2ccccc2o1 | inactive: 3.45% | –
22 | Cc1cccc(NC(=O)CSc2nc(-c3ccco3)nc3cc(=O)[nH]n23)c1 | inactive: -17.6% | –
23 | CC(=O)N1CCc2cc(Br)cc(S(=O)(=O)N3CCC(C(=O)N(C)c4cc(C)ccc4C)CC3)c21 | inactive: -3.38% | –
24 | COc1ccc(-c2cc3ccc(O)c(CN4CCOCC4)c3oc2=O)cc1 | inactive: 14.5% | –

Row | Compound | activity change, negative = inhibition | outcome
25 | CCOC(=O)c1c(C)oc2nc(C)nc(NCc3ccc(Cl)cc3)c12 | inactive: 4.3% | –
26 | CCn1cc(C(=O)N2CCN(c3ccccc3F)CC2)c(=O)c2cc(S(=O)(=O)N(C)C3CCCCC3)ccc21 | inactive: -10.4% | –
27 | CCc1ccc(NC(=O)C2CCN(S(=O)(=O)c3ccc4[nH]c5c(c4c3)CCCCC5)CC2)cc1 | – | inactive
28 | O=C(CCn1c(=O)c2ccccc2n(Cc2ccc(F)cc2Cl)c1=O)NCc1ccc2c(c1)OCO2 | – | inactive
29 | COc1ccc(-c2ccc3c(N)c(C(=O)NCc4ccc(Cl)cc4)sc3n2)cc1 | – | inactive
30 | COC(=O)c1c(SC)nc2ccccc2c1OCc1ccccc1C | inactive: 1.91% | –
31 | CC(=O)c1ccc(S(=O)(=O)Nc2cccc(-c3ccc(N4CCCCC4)nn3)c2)cc1 | inactive: 8.27% | –
32 | Cn1cc(S(=O)(=O)N2CCCCCC2)cc1C(=O)N1CCN(c2cccc(Cl)c2)CC1 | inactive: -0.613% | –
33 | O=[N+]([O-])c1cc(-c2nc(-c3ccccc3)no2)ccc1N1CCN(c2ccccc2)CC1 | inactive: 1.44% | –
34 | CCOC(=O)CSc1nc2c(sc3ccccc32)c(=O)n1CCc1ccccc1 | inactive: -4.59% | –
35 | Cc1ccc(CNC(=O)C2CCN(c3nc4ccccc4n(C)c3=O)CC2)cc1 | inactive: 14.2% | –
36 | CCOC(=O)C1CCN(C(=O)C2CCN(C3=NS(=O)(=O)C(c4ccc(C)cc4)=C3CC)CC2)CC1 | – | inactive
37 | CCOC(=O)c1noc2ncnc(Nc3ccc(F)cc3F)c12 | – | inactive
38 | Cc1cccc(C)c1NC(=O)Cn1c(=O)n(CC2CCC(C(=O)NCCc3ccccc3)CC2)c(=O)c2ccccc21 (stereo not drawn) | inactive: 44.6% | –
39 | CC(C)C[C@H](NC(=O)[C@@H](NC(=O)c1cccc(-c2ccccc2)n1)[C@@H](C)O)B(O)O | inactive: -19.3% | –
40 | CCOc1ccc2nc(C)cc(Nc3ccccc3OCC)c2c1 | inactive: 3.76% | –
41 | CCCOc1ccc(CNC(=O)C(CC)n2nc(C)c3sc4ccccc4c3c2=O)cc1 (stereo not drawn) | inactive: -5.3% | –
42 | Cc1ccc(C(=O)O)cc1Nc1nc2ccccc2n2nnnc12 | inactive: -4.87% | –
43 | Cc1ccc(Cl)cc1N1CCN(C(=O)CCC(=O)Nc2ccc3nc(N4CCC(C)CC4)cc(C)c3c2)CC1 | inactive: -4.03% | –
44 | Cc1ccc(NC(=O)Cn2nnc(-c3nc(-c4ccncc4)no3)c2N)cc1 | inactive: 10.1% | –
45 | CCOC(=O)c1c(NC(=O)c2ccccc2Cl)sc2c1CCCC2 | inactive: -0.947% | –
46 | O=C(NCCCN1CCN(c2ccc(F)cc2)CC1)Nc1ccc(Cl)cc1 | – | inactive
47 | COCCNC(=O)c1c(C)oc2nc(C)nc(N3CCOCC3)c12 | inactive: -0.409% | –
48 | Cc1ccc2c(c1)NC(c1cccnc1)=NC(c1ccc(F)cc1)=N2 | inactive: -5.99% | –

Reference: PubChem BioAssay AID1963576 (National Center for Advancing Translational Sciences (NCATS), 2024)
